Source: PubChem BioAssay AID624417 (National Center for Advancing Translational Sciences (NCATS), 2012)
The campaign covered roughly 410,000 compounds. About 6,400 (1.6%) were called active. Inconclusive means that the source gave no clear call. Such entries were picked first, then a sample of the others. Calls come from the whole dose curve; as a rule, active = well fitted inhibition curve with a large enough effect; inconclusive = small, poorly fitted or top-dose-only effect; inactive = no such curve, though single readings can be large or run the other way. Potencies of inconclusive entries are left out as doubtful fits.

The molecules below were run against Glucagon-like peptide 1 receptor (Homo sapiens) (UniProt P43220) (assay: qHTS of GLP-1 Receptor Inverse Agonists (Inhibition Mode)). Conditions: HEK293 GLP-1R CRE-luciferase, luminescence, 24 h, GLP-1R form is constitutively active; series mostly up to 38.3 µM.
How it was run: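 Inverse agonism was detected as reduced cAMP-driven luciferase luminescence after 24 h compound treatment. The cells were HEK293 clones expressing constitutively active human GLP-1R with the reporter. Reporter-only and GPR119 cell lines served as counterscreen controls.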
Note: nearly all actives have a fitted effect of over 55% in size.
Potency is the fitted concentration of half-maximal effect; tags give direction and shape of the fitted curve.

Chain of UniProt P43220 (P43220 whole entry, looked up): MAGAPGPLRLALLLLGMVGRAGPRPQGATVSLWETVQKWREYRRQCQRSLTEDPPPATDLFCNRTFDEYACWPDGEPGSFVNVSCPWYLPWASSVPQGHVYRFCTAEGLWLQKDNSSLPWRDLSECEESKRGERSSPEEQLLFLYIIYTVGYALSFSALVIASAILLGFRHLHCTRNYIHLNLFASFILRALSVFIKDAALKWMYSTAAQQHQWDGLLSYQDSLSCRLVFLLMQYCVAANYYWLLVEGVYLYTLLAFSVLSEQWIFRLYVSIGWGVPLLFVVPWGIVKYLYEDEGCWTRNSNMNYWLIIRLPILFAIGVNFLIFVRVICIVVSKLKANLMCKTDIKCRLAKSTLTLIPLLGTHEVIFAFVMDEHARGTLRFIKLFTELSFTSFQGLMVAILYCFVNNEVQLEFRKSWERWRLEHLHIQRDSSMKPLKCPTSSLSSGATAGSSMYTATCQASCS

Structure (SMILES)	Potency
CN(C)S(=O)(=O)c1ccc(NC(=O)CN2CCN(c3ccccn3)CC2)cc1	inactive
COc1cc(SC)ccc1C(=O)N1CCn2c3c(c4cc(C)ccc42)CCCC31 (configuration not stated)	inactive
Cc1ccc(NCc2nnc(SCC(=O)NCc3ccco3)n2CC2CCCO2)cc1Cl (configuration not stated)	inconclusive [inhibitor, single point]
COc1ccc2c(c1)C(=O)C(=O)N2CC1COc2ccccc2O1 (configuration not stated)	inconclusive [inhibitor, single point]
Cc1ccc(S(=O)(=O)n2cc(CO)c3ccccc32)cc1	inconclusive [inhibitor, partial curve, poor fit]
COCCNC(=S)N/N=C(\C)c1ccc(OC(F)F)cc1	inconclusive [inhibitor, single point]
COc1ccc(N2C(=O)C3C4C=CC(C4)C3C2=O)c(OC)c1 (configuration not stated)	inactive
CC1CN(C(=O)CCC(=O)NCCCN2CCN(Cc3ccccc3)CC2)c2cc(Cl)ccc2O1 (configuration not stated)	inconclusive [inhibitor, partial curve, poor fit]
CC(=O)CCc1ccc(OCC(O)CNCCOc2ccc(C)cc2)cc1 (configuration not stated)	inconclusive [inhibitor, single point]
CCCCCCCCN1C(=O)[C@H](CC(=O)NCCc2ccccc2OC)C[C@@]2(C(=O)OCC)CCCC=C12	inconclusive [inhibitor, partial curve, poor fit]
COc1ccccc1C=CC(=O)C=Cc1ccccc1OC	inconclusive [inhibitor, single point]
CCN(CC(=O)NCc1ccc(Cl)cc1)C(=O)COc1ccc(Cl)cc1Br	active: 11.2 µM
COc1ccc(C)cc1NC(=O)C1CCN(C(=O)Cc2ccccc2)CC1	inactive
Cc1ccc2cc(CN(CCN3CCCC3)C(=O)Nc3ccc(F)cc3)c(=O)[nH]c2c1C	inconclusive [inhibitor, partial curve, poor fit]
Cn1c(-c2cccc(Br)c2)cnc1NCc1cccc(F)c1	inconclusive [inhibitor, partial curve]
COc1ccc(Nc2nnc(SCC3CCCCO3)s2)cc1 (configuration not stated)	inconclusive [inhibitor, single point]
CC[C@@]12C(=O)N(c3cccc(Br)c3)C(=O)N1[C@H](c1ccc(OC)cc1)[C@@H]1C(=O)N(C(C)(C)C)C(=O)[C@@H]12	inconclusive [inhibitor, partial curve, poor fit]
Cn1c(-c2sccc2OCc2ccccc2)n[nH]c1=S	inactive
O=C(N/N=C/c1cc(Cl)cc(Cl)c1O)c1ccncc1	inconclusive [inhibitor, full curve, poor fit]
COc1ccc2cc1Oc1ccc(cc1)C[C@H]1c3c(cc4c(c3Oc3cc5c(cc3OC)CCN(C)[C@@H]5C2)OCO4)CCN1C	inconclusive [inhibitor, partial curve]
Cc1cc(NC(=O)C23CC4CC(CC(C4)C2)C3)n[nH]1	inconclusive [inhibitor, single point]
COc1ccc(OC(C)C(=O)N(C)Cc2nc(-c3ccc(OC)cc3)no2)cc1 (configuration not stated)	inconclusive [inhibitor, single point]
Cc1ccnc(SCc2ccc([N+](=O)[O-])cc2)n1	inactive

Structure (SMILES)	Potency
COc1cccc(-c2nn(-c3ccccc3)cc2C(=O)OCC(=O)Nc2ncc(Cl)cc2Cl)c1	inconclusive [inhibitor, partial curve, poor fit]
CC(C)c1ccc(NC(=O)C2CCCN(S(=O)(=O)c3ccc4[nH]c(=O)oc4c3)C2)cc1 (configuration not stated)	inconclusive [inhibitor, single point]
CC(C)N1CCC(N2CCN(C/C=C/c3ccc(F)cc3)CC2CCO)CC1 (configuration not stated)	inconclusive [inhibitor, partial curve, poor fit]
CCCc1nc2ccccc2c(=O)n1/N=C/c1ccccc1O	active: 4.47 µM
CN=c1scc(-c2cc(OC)ccc2OC)n1/N=C/c1c(C)[nH]c2ccccc12	inconclusive [inhibitor, partial curve, poor fit]
CCc1ccccc1NC(=O)c1nc2nc(C)cc(C(F)F)n2n1	inactive
CCN(CC)S(=O)(=O)c1ccc2c(c1)c(=O)c(C(=O)N1CCN(c3ccc(OC)cc3)CC1)cn2C	inactive
C(=C\c1ccccc1)/CN1CCN(C(c2cccc3ccccc23)c2nnnn2-c2ccc3c(c2)OCCO3)CC1 (configuration not stated)	inconclusive [inhibitor, single point]
Cc1onc(-c2c(F)cccc2Cl)c1C(=O)OCC(=O)c1c[nH]c2ccccc12	active: 8.91 µM
CC(C)N1CC(C(=O)Nc2cc(Cl)cc(Cl)c2)CC1=O (configuration not stated)	inactive
O=C(NCCCN1CCN(c2ccccc2F)CC1)c1ccc2nc(Cc3ccccc3)oc2c1	inconclusive [inhibitor, partial curve]
OC(COc1c(F)cc(Br)cc1F)CN1CCc2ccccc2C1 (configuration not stated)	inconclusive [inhibitor, single point]
O=C(CCc1ccccc1)NC(NC(=S)Nc1ccc(Br)cc1)C(Cl)(Cl)Cl (configuration not stated)	inconclusive [inhibitor, single point]
COc1ccc(CN(C)C(=O)C2CSC3(C)CCC(=O)N23)c(OC)c1 (configuration not stated)	inactive
CCOC(=O)COc1ccc(CC)cc1C(=O)c1ccn2nc(-c3ccc(C)cc3)cc2n1	inconclusive [inhibitor, single point]
Cc1ccccc1CSc1nc2c([nH]c3ccccc32)c(=O)n1-c1ccccc1	inactive
CCOC(=O)c1n[nH]c2ccccc12	inactive
O=C(Nc1ccc2c(c1)CCC2)c1ccccc1	inconclusive [inhibitor, single point]
OCC1(Cc2ccc(F)cc2)CCCN(CCc2ccccc2)C1 (configuration not stated)	inconclusive [inhibitor, partial curve, poor fit]
CCCC1=Nc2cc(C(=O)N3CCN(c4ccccn4)CC3)ccc2Sc2ccc(C)cc21	inconclusive [inhibitor, single point]
CN(c1ccccc1)S(=O)(=O)c1ccc(Cl)c(C(=O)Nc2ccc(-c3nc4ccccc4[nH]3)cc2)c1	inconclusive [inhibitor, single point]
O=C(O)c1ccccc1Nc1cccc(OCc2ccc3ccccc3n2)c1	inactive
CC1(C(=O)NS(=O)(=O)c2cccs2)CCN1C(=O)CC1CC1 (configuration not stated)	inactive

Structure (SMILES)	Potency
CCCCCc1nc2c(C#N)c(-c3ccc(Cl)cc3)ccn2n1	inconclusive [inhibitor, partial curve]
O=C1CSC(=S)N1c1ccc(O)cc1	inconclusive [inhibitor, single point]
Cc1cc(C)nc(Nc2ccc(N3CCOCC3)cc2)n1	inactive
O=C(NOCc1ccccc1)c1ccc(Cl)cc1Cl	inconclusive [inhibitor, partial curve, poor fit]
CCO[C@H]1OC(C(=O)N2CCCCCCC2)=C[C@@H](c2csc3ccccc23)[C@@H]1CCCO	inconclusive [inhibitor, single point]
Cc1ccc(CNC(=O)c2cc3c(=O)n4cccc(C)c4nc3s2)cc1	inactive
Cc1ccc(C(c2ccc(C)o2)c2cccc([N+](=O)[O-])c2O)o1	inconclusive [inhibitor, single point]
Cc1nc(-c2ccc(F)cc2)sc1CCNC(=O)c1ccccc1C(F)(F)F	inconclusive [inhibitor, single point]
C=CCc1cc(Cl)ccc1OCCNCCN1CCOCC1	active: 10 µM
OC(COc1ccc(Cl)cc1)CN1CCN(c2cccc(Cl)c2)CC1 (configuration not stated)	inconclusive [inhibitor, partial curve, poor fit]
Cc1ccc(C(=O)OC(C(=O)Nc2ccc(Cl)cc2C(F)(F)F)c2ccccc2)cc1 (configuration not stated)	inconclusive [inhibitor, single point]
COc1ccc(NC(=O)c2cc(-c3ccc(F)cc3OC(C)C)n[nH]2)cn1	inconclusive [inhibitor, single point]
Cc1ccc2cccc(OCC(=O)NCCC3=CCCCC3)c2n1	inconclusive [inhibitor, single point]
Cc1ccc2oc(C(=O)NCC(c3ccc(Cl)cc3)N3CCOCC3)c(C)c2c1 (configuration not stated)	inconclusive [inhibitor, single point]
CCCOc1ccc2c(CC)cc(=O)oc2c1C	inactive
O=C(N/N=C/c1ccc(Br)s1)c1ccccn1	inconclusive [inhibitor, single point]
CCOC(=O)c1ccc(N2C(=O)c3n[nH]c(-c4ccco4)c3C2c2cccc([N+](=O)[O-])c2)cc1 (configuration not stated)	inconclusive [inhibitor, full curve, poor fit]
CCCN(CCC)C(=O)Cn1c(SCc2cccc(F)c2)nc2cccnc21	inactive
CCOc1ccccc1NC(=O)CSc1nc2cc(OC)c(OC)cc2c2nc(CCn3c(C)nc4ccccc43)nn12	inactive
CCOC(=O)CN(C(=O)CSc1nnc(CNc2ccc(C)cc2C)o1)c1ccccc1	inconclusive [inhibitor, partial curve, poor fit]
COc1ccc2nc(-c3ccccc3)cc(C(=O)N3CCC3)c2c1	inconclusive [inhibitor, partial curve, poor fit]
